Patent US11618753B2 (priority 2018, dated 2023)

What follows are compounds tested on MLKL phosphorylation, HT29-L23 human colorectal adenocarcinoma cells (assay: cells). Details: read-out: pMLKL HCS Cell Assay (IC50, uM).
Compound `Cc1ccc(-c2cc(CN3CCC(F)(F)CC3)c3c(N)ncnn23)cc1C(=O)N[C@@H]1CN(C(=O)CC(O)(C(F)(F)F)C(F)(F)F)C[C@@H]1F` [Example 1642, 5-{4-amino-5-[(4,4-difluoropiperidin-1-yl)methyl]pyrrolo[2,1-f][1,2,4]triazin-7-yl}-N-[(3R,4S)-4-fluoro-1-[4,4,4-trifluoro-3-hydroxy-3-(trifluoromethyl)butanoyl]pyrrolidin-3-yl]-2-methylbenzamide] has an IC50 of 0.00081 µM. With `COc1ncc(-c2cc(C(F)(F)F)c3c(N)ncnn23)cc1C(=O)N[C@@H]1CN(S(=O)(=O)C2CCOCC2)C[C@@H]1F` [Example 1485, 5-[4-amino-5-(trifluoromethyl)pyrrolo[2,1-f][1,2,4]triazin-7-yl]-N-[(3R,4S)-4-fluoro-1-(oxane-4-sulfonyl)pyrrolidin-3-yl]-2-methoxypyridine-3-carboxamide] the IC50 was 0.0066 µM. `Cc1cc(F)c(-c2cc(C(F)(F)F)c3c(N)ncnn23)cc1C(=O)N[C@@H]1CN(C(=O)c2ccccn2)C[C@@H]1F` [Example 828, 5-[4-amino-5-(trifluoromethyl)pyrrolo[2,1-f][1,2,4]triazin-7-yl]-4-fluoro-N-[(3R,4S)-4-fluoro-1-(pyridine-2-carbonyl)pyrrolidin-3-yl]-2-methylbenzamide] showed an IC50 of 0.013 µM. `Cc1ncc(-c2cc(C(F)(F)F)c3c(N)ncnn23)cc1C(=O)N[C@@H]1CN(C(=O)C(C)(C)F)C[C@@H]1F` [Example 374, 5-[4-amino-5-(trifluoromethyl)pyrrolo [2,1-f][1,2,4]triazin-7-yl]-N-[(3R,4S)-4-fluoro-1-(2-fluoro-2-methylpropanoyl)pyrrolidin-3-yl]-2-methylpyridine-3-carboxamide] gave an IC50 of 0.013 µM. `COc1ncc(-c2cc(C(F)(F)F)c3c(N)ncnn23)cc1C(=O)N[C@@H]1CN(C(=O)c2cncs2)C[C@@H]1F` [Example 1666, 5-(4-amino-5-(trifluoromethyl)pyrrolo[2,1-f][1,2,4]triazin-7-yl)-N-((3R,4S)-4-fluoro-1-(thiazole-5-carbonyl)pyrrolidin-3-yl)-2-methoxynicotinamide] was tested, and the IC50 was 0.013 µM. Compound `Nc1ncnn2c(-c3cccc(C(=O)N4CCC[C@@H](Cc5ccc(F)cc5)C4)c3)cc(C(F)(F)F)c12` [Example 82, 7-{3-[(3S)-3-[(4-fluorophenyl)methyl]piperidine-1-carbonyl]phenyl}-5-(trifluoromethyl)pyrrolo[2,1-f][1,2,4]triazin-4-amine] has an IC50 of 0.045 µM. For `Nc1ncnn2c(-c3cccc(C(=O)N[C@@H]4CN(C(=O)c5cccc(F)c5)C[C@@H]4F)c3)cc(C(F)(F)F)c12` [Example 92, 3-[4-amino-5-(trifluoromethyl)pyrrolo[2,1-f][1,2,4]triazin-7-yl]-N-[(3R,4S)-4-fluoro-1-(3-fluorobenzoyl)pyrrolidin-3-yl]benzamide], the IC50 was 0.027 µM. With `COc1ncc(-c2cc(C(F)(F)F)c3c(N)ncnn23)cc1C(=O)N[C@@H]1CN(C2CCCc3c(Br)cccc32)C[C@@H]1F` (mixture of isomers) [Example 1359, 5-[4-amino-5-(trifluoromethyl)-pyrrolo[2,1-f][1,2,4]triazin-7-yl]-N-[(3R,4S)-1-(5-bromo-1,2,3,4-tetrahydronaphthalen-1-yl)-4-fluoropyrrolidin-3-yl]-2-methoxypyridine-3-carboxamide] the IC50 was 0.342 µM. Work on `COc1ncc(-c2cc(CN3CC(C)(C)C3)c3c(N)ncnn23)cc1C(=O)N[C@@H]1CN(C(=O)[C@@](C)(O)C(F)(F)F)C[C@@H]1F` [Example 1584, 5-{4-amino-5-[(3,3-dimethylazetidin-1-yl)methyl]pyrrolo[2,1-f][1,2,4]triazin-7-yl}-N-[(3R,4S)-4-fluoro-1-[(2R)-3,3,3-trifluoro-2-hydroxy-2-methylpropanoyl]pyrrolidin-3-yl]-2-methoxypyridine-3-carboxamide] yielded an IC50 of 0.0019 µM. `COc1ncc(-c2cc(Cn3ccnc3C)c3c(N)ncnn23)cc1C(=O)N[C@@H]1CN(C(=O)C2CC(F)(F)C2)C[C@@H]1F` [Example 1704, 5-(4-amino-5-((2-methyl-1H-imidazol-1-yl)methyl)pyrrolo[2,1-f][1,2,4]triazin-7-yl)-N-((3R,4S)-1-(3,3-difluorocyclobutane-1-carbonyl)-4-fluoropyrrolidin-3-yl)-2-methoxynicotinamide] was tested, and the IC50 was 0.272 µM. `Cc1nc(C(=O)N2C[C@H](F)[C@H](NC(=O)c3cc(-c4cc(C(F)(F)F)c5c(N)ncnn45)c(F)cc3C)C2)cs1` [Example 812, 5-[4-amino-5-(trifluoromethyl)pyrrolo[2,1-f][1,2,4]triazin-7-yl]-4-fluoro-N-[(3R,4S)-4-fluoro-1-(2-methyl-1,3-thiazole-4-carbonyl)pyrrolidin-3-yl]-2-methylbenzamide] showed an IC50 of 0.027 µM. `COc1ncc(-c2cc(CN3CCOCC3)c3c(N)ncnn23)cc1C(=O)N[C@@H]1CN(C(=O)OCC(F)(F)F)C[C@@H]1F` [Example 1717, 2,2,2-trifluoroethyl (3R,4S)-3-(5-(4-amino-5-(morpholinomethyl)pyrrolo[2,1-f][1,2,4]triazin-7-yl)-2-methoxynicotinamido)-4-fluoropyrrolidine-1-carboxylate] gave an IC50 of 0.00065 µM. `COc1ncc(-c2cc(C(F)(F)F)c3c(N)ncnn23)cc1C(=O)NC1CC/C(=N\OCc2ccccc2)C1` (centres unmarked) [Example 1684, (E)-5-(4-amino-5-(trifluoromethyl)pyrrolo[2,1-f][1,2,4]triazin-7-yl)-N-(3-((benzyloxy)imino)cyclopentyl)-2-methoxynicotinamide] gave an IC50 of 0.235 µM. `Nc1ncnn2c(-c3ccc(Cl)c(C(=O)N[C@@H]4CN(C(=O)C5CCC(F)(F)CC5)C[C@@H]4F)c3)cc(CN3CCC(C(F)(F)F)CC3)c12` [Example 1160, 5-(4-amino-5-{[4-(trifluoromethyl)piperidin-1-yl]methyl}pyrrolo[2,1-f][1,2,4]triazin-7-yl)-2-chloro-N-[(3R,4S)-1-(4,4-difluorocyclohexanecarbonyl)-4-fluoropyrrolidin-3-yl]benzamide] showed an IC50 of 0.01 µM. For `COc1ncc(-c2cc(C(=O)NCCNC(C)=O)c3c(N)ncnn23)cc1C(=O)NCC[C@H](O)c1ccc(Cl)cc1` [Example 68, 5-{4-amino-5-[(2-acetamidoethyl)carbamoyl]pyrrolo[2,1-f][1,2,4]triazin-7-yl}-N-[(3S)-3-(4-chlorophenyl)-3-hydroxypropyl]-2-methoxypyridine-3-carboxamide], the IC50 was 0.348 µM. `[2H]C([2H])([2H])Oc1ncc(-c2cc(CN3CC(F)(F)C3)c3c(N)ncnn23)cc1C(=O)N[C@@H]1CN(S(=O)(=O)c2ccccc2OC)C[C@@H]1F` [Example 1295, 5-{4-amino-5-[(3,3-difluoroazetidin-1-yl)methyl]pyrrolo[2,1-f][1,2,4]triazin-7-yl}-N-[(3R,4S)-4-fluoro-1-(2-methoxybenzenesulfonyl)pyrrolidin-3-yl]-2-(methoxy-d3)nicotinamide] was tested, and the IC50 was 0.00061 µM. `C[C@@](O)(C(=O)N1C[C@H](F)[C@H](NC(=O)c2cc(-c3cc(C(F)(F)F)c4c(N)ncnn34)ccc2OC(F)F)C1)C(F)(F)F` [Example 1080, 5-[4-amino-5-(trifluoromethyl)pyrrolo[2,1-f][1,2,4]triazin-7-yl]-2-(difluoromethoxy)-N-[(3R,4S)-4-fluoro-1-[(2R)-3,3,3-trifluoro-2-hydroxy-2-methylpropanoyl]pyrrolidin-3-yl]benzamide] was tested, and the IC50 was 0.0071 µM.
